Binding data for five molecules are collected here from article PMC4466309.

These are yes or no findings as the source states them, for the method shown. Binding seen in cells or lysates may run through a third protein. Some results given as binding are weak or reduced against the parent protein; the word gives no strength. Where a sequence is shown, tags or fusion partners need not be part of it.

Test [1] deals with T1, Flag-FBXO45 (human) (UniProt P0C2W1).
T1 sequence: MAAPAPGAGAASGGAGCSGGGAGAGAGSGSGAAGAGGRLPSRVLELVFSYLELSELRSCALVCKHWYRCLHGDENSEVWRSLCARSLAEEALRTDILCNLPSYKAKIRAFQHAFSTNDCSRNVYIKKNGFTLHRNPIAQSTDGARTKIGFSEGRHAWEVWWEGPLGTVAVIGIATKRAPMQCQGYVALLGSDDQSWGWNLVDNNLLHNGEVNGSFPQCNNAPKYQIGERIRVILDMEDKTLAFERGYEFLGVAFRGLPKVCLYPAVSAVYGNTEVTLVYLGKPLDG
The experiment in a line: co-IP; HEK293T cells co-transfected with a Flag-tagged and an eGFP-fused protein; anti-Flag M2 affinity gel, 4°C overnight; 20 mM Tris pH 7.8, 150 mM NaCl, 10% glycerol, 0.3% Triton-X100; Western blot with anti-Flag and anti-GFP.

The target of test [2] is T1, Flag-FBXO45 (human). Briefly: co-IP; HEK293T cells transfected with Flag-FBXO45 and HA-Hey1 alone or together; immunoprecipitated with Flag or HA antibodies.
For another test, the target named is T2, Flag-Strep (FS)-Hey2 (UniProt Q9QUS4).
T2 sequence: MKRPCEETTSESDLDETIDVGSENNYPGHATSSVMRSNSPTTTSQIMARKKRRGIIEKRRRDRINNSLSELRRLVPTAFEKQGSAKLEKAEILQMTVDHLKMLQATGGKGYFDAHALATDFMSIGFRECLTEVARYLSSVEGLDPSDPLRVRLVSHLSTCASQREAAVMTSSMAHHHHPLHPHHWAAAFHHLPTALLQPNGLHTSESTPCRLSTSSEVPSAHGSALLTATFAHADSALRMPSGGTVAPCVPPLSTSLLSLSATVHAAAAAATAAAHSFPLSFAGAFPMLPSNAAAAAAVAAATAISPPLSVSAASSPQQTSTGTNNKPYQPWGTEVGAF
Briefly: co-IP; Dox-induced HEK293 lines (FS-Hey1, FS-Hey2, Flag-HeyL, FS-Hes1) transfected with eGFP constructs; anti-Flag M2 affinity gel, 4°C overnight; 20 mM Tris pH 7.8, 150 mM NaCl, 10% glycerol, 0.3% Triton-X100; Western blot with anti-Flag and anti-GFP.

For another test, the target named is T3, Flag-HeyL (UniProt Q9DBX7).
T3 sequence: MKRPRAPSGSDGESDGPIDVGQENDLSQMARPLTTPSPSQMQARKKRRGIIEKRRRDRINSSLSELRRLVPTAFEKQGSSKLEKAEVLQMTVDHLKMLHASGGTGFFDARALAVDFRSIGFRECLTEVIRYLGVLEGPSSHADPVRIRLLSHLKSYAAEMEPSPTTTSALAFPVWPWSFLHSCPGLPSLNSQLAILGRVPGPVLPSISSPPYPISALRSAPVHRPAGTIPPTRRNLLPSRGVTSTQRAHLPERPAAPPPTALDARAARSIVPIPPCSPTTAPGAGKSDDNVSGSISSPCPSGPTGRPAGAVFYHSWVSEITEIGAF
The description is as above.

Another test addresses T4, Flag-Strep (FS)-Hey1 (UniProt Q9WV93).
T4 sequence: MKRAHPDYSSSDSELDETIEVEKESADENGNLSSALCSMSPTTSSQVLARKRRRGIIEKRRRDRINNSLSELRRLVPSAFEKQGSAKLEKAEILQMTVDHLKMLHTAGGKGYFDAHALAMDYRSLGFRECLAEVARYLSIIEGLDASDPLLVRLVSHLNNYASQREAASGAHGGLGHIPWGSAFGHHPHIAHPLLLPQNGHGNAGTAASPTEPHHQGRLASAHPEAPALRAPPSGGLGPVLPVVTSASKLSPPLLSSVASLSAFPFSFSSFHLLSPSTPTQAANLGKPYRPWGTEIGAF
The description is as above.

For another test, the target named is T5, Flag-Strep (FS)-Hes1 (UniProt P35428).
T5 sequence: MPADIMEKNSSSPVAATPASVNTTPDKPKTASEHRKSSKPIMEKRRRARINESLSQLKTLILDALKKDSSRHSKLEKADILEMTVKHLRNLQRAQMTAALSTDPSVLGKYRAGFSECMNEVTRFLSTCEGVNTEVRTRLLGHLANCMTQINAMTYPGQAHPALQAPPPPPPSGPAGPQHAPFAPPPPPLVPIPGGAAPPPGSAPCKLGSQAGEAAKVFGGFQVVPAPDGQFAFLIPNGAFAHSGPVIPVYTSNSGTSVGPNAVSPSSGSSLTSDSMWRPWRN
The test is described as above.

B1: eGFP-Hey1 ΔbHLH-O (domain or fragment, UniProt Q9WV93 159-299)
chain: NNYASQREAASGAHGGLGHIPWGSAFGHHPHIAHPLLLPQNGHGNAGTAASPTEPHHQGRLASAHPEAPALRAPPSGGLGPVLPVVTSASKLSPPLLSSVASLSAFPFSFSSFHLLSPSTPTQAANLGKPYRPWGTEIGAF
For B1, the binding result with Flag-FBXO45 (human) [1] is “no binding”.

B2: HA-Hey1 (protein, UniProt Q9WV93 1-299)
chain: MKRAHPDYSSSDSELDETIEVEKESADENGNLSSALCSMSPTTSSQVLARKRRRGIIEKRRRDRINNSLSELRRLVPSAFEKQGSAKLEKAEILQMTVDHLKMLHTAGGKGYFDAHALAMDYRSLGFRECLAEVARYLSIIEGLDASDPLLVRLVSHLNNYASQREAASGAHGGLGHIPWGSAFGHHPHIAHPLLLPQNGHGNAGTAASPTEPHHQGRLASAHPEAPALRAPPSGGLGPVLPVVTSASKLSPPLLSSVASLSAFPFSFSSFHLLSPSTPTQAANLGKPYRPWGTEIGAF
With B2, in the test with Flag-FBXO45 (human) [2], the binding entry is “binds”.

B3: eGFP-FBXO45 (protein, UniProt P0C2W1 1-286)
chain: MAAPAPGAGAASGGAGCSGGGAGAGAGSGSGAAGAGGRLPSRVLELVFSYLELSELRSCALVCKHWYRCLHGDENSEVWRSLCARSLAEEALRTDILCNLPSYKAKIRAFQHAFSTNDCSRNVYIKKNGFTLHRNPIAQSTDGARTKIGFSEGRHAWEVWWEGPLGTVAVIGIATKRAPMQCQGYVALLGSDDQSWGWNLVDNNLLHNGEVNGSFPQCNNAPKYQIGERIRVILDMEDKTLAFERGYEFLGVAFRGLPKVCLYPAVSAVYGNTEVTLVYLGKPLDG
B3: the binding result in the test with Flag-Strep (FS)-Hey2 was “binds”; with Flag-HeyL, “binds”; with Flag-Strep (FS)-Hey1 it was “binds”; with Flag-Strep (FS)-Hes1, “no binding”.

B4: eGFP-Hey1 1–286 (domain or fragment, UniProt Q9WV93 1-286)
chain: MKRAHPDYSSSDSELDETIEVEKESADENGNLSSALCSMSPTTSSQVLARKRRRGIIEKRRRDRINNSLSELRRLVPSAFEKQGSAKLEKAEILQMTVDHLKMLHTAGGKGYFDAHALAMDYRSLGFRECLAEVARYLSIIEGLDASDPLLVRLVSHLNNYASQREAASGAHGGLGHIPWGSAFGHHPHIAHPLLLPQNGHGNAGTAASPTEPHHQGRLASAHPEAPALRAPPSGGLGPVLPVVTSASKLSPPLLSSVASLSAFPFSFSSFHLLSPSTPTQAANLG
Consider B4, for which, in the test with Flag-FBXO45 (human) [1], the binding entry is “binds”.

B5: eGFP-FBXO45ΔF (domain or fragment, UniProt P0C2W1 83-286)
chain: CARSLAEEALRTDILCNLPSYKAKIRAFQHAFSTNDCSRNVYIKKNGFTLHRNPIAQSTDGARTKIGFSEGRHAWEVWWEGPLGTVAVIGIATKRAPMQCQGYVALLGSDDQSWGWNLVDNNLLHNGEVNGSFPQCNNAPKYQIGERIRVILDMEDKTLAFERGYEFLGVAFRGLPKVCLYPAVSAVYGNTEVTLVYLGKPLDG
Consider B5, for which the binding entry with Flag-Strep (FS)-Hey1 is given as “binds”.
